Where “and” joins values, the source holds several entries; their conditions need not be identical. Equal values may be shown once. Among all 420,000 compounds or so, about 64,000 (15%) were called active. Inconclusive means that the source gave no clear call. Such entries were picked first, then a sample of the others. Calls follow the shape of the dose curve; as a rule, active = well fitted inhibition curve with a large enough effect; inconclusive = small, poorly fitted or top-dose-only effect; inactive = flat fitted curve, though single readings scatter. Where the call is inconclusive, the potency comes from a doubtful curve fit.
Experiment: qHTS for Inhibitors of human tyrosyl-DNA phosphodiesterase 1 (TDP1): qHTS in cells in absence of CPT; also: nearly all actives have a fitted effect of over 55% in size
Conditions: DT40 Tdp1-/- hTDP1 cells, no CPT, ATP luminescence, 48 h; activity change, negative = growth inhibition: at 46.2 µM (top of the series) unless noted
Procedure, shortened: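 Readout: luminescence from CellTiter-Glo after 30 min in the dark at RT. Cells: DT40 Tdp1-/- with stable hTDP1, 400/well. Exposure: compounds alone, ≥48 hr, 37 °C.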
% is scaled to controls: 0 for no effect and ±100 for the full control effect; potency is read from the fitted curve at half-maximal effect; tags tell the direction and shape of the fitted curve.

Row | Compound | activity change, negative = growth inhibition | Potency
1 | Cc1c(C(=O)N2CCc3ccccc32)oc2c1C(=O)CC(C)(C)C2 | inactive: -27.2% | 
2 | Cc1ccccc1C(=O)NC1CCN(C(=O)Nc2ccccc2Cl)CC1 |  | inconclusive: 0.13 µM [inhibitor, full curve]
3 | O=C(CCc1c[nH]c2ccccc12)N1CCCCCCC1 |  | inconclusive: 29.1 µM [inhibitor, partial curve, poor fit]
4 | COc1ccc(OC)c(NC(=O)CCCCCn2nnc3ccccc3c2=O)c1 |  | inconclusive: 32.6 µM [inhibitor, single point]
5 | CCC(=O)N1CCCC1(C)C(=O)Nc1ccc2scnc2c1 (stereo unspecified) | inactive: -2.04% | 
6 | CCC(C(=O)Nc1cc(OC)cc(OC)c1)n1nc(-c2ccc(C)c(C)c2)ccc1=O (stereo unspecified) |  | inconclusive: 29.1 µM [inhibitor, single point]
7 | Cc1ccc(NC(=O)CN(C)S(=O)(=O)c2cccs2)cc1F |  | inconclusive: 23.1 µM [inhibitor, single point]
8 | Cc1ccc(CNc2nc(N)c([N+](=O)[O-])c(NCCO)n2)cc1 |  | inconclusive: 25.9 µM [inhibitor, partial curve, poor fit]
9 | COc1ccc(Cl)cc1NC(=O)Cn1c(NCCO)nc2ccccc21 |  | inconclusive: 18.4 µM [inhibitor, single point]
10 | COc1ccc(C2CC(c3cccs3)=NN2C(=O)CSc2nc3ccccc3o2)cc1 (stereo unspecified) |  | inconclusive: 29.1 µM [inhibitor, single point]
11 | O=C(CN1CCN(c2ccc(O)cc2)CC1)Nc1ccc2c(c1)OCCO2 |  | inconclusive: 29.1 µM [inhibitor, single point]
12 | COC(=O)c1cc(Cl)ccc1NCC(N)c1ccccc1 (stereo unspecified) |  | inconclusive: 18.4 µM [inhibitor, single point]
13 | COc1ccc(Cc2c(-c3cccc(Br)c3)nc3ccc(Br)cn23)c(C)c1 |  | inconclusive: 29.1 µM [inhibitor, single point]
14 | CCCCN(C)c1c(C)nc2ccc(C(=O)NC3CCN(C)CC3)cn12 |  | inconclusive: 25.9 µM [inhibitor, single point]
15 | CN1CCc2c(sc3c2C(=O)NC(c2ccc(OC(=O)c4ccc(C(C)(C)C)cc4)cc2)N3)C1 (stereo unspecified) |  | inconclusive: 20.6 µM [inhibitor, single point]
16 | O=C(Nc1cccc(Cl)c1)c1ccc(F)c(S(=O)(=O)NCc2cccs2)c1 |  | inconclusive: 29.1 µM [inhibitor, single point]
17 | Cc1nc(NS(=O)(=O)c2ccc(Cl)s2)c2c3c(sc2n1)CCCC3 |  | inconclusive: 25.9 µM [inhibitor, single point]
18 | Cc1ccc(NC(=O)c2cncc(Br)c2)c([N+](=O)[O-])c1 | inactive: -12.2% | 
19 | CCN(CC)C(=O)c1sc2c(c1C)c(=O)n(-c1ccc(Cl)c(Cl)c1)c(=O)n2Cc1ccccc1C#N |  | inconclusive: 29.1 µM [inhibitor, single point]
20 | COc1ccc(NS(=O)(=O)c2cc(NC(=O)c3cc(=O)c4ccccc4o3)ccc2OC)cc1 | inactive: -21.9% | 
21 | COCCCNc1oc(/C=C/c2cc(OC)c(OC)c(OC)c2)nc1C#N |  | active: 23.1 µM
22 | CC1=N/C(=C\c2ccc3c(c2)OCO3)C(=O)N1c1ccc(C(=O)O)cc1 |  | inconclusive: 10.3 µM [inhibitor, partial curve]

Row | Compound | activity change, negative = growth inhibition | Potency
23 | C=CCN(C(C(=O)OC)C(C)C)S(=O)(=O)CCNCc1ccccc1 (stereo unspecified) |  | inconclusive: 35.5 µM [inhibitor, single point] and inconclusive: 29.1 µM [inhibitor, single point]
24 | COc1ccc(CCNC(=O)C(C)n2nc(C)c3c(C)n(-c4ccc(C)cc4)nc3c2=O)c(OC)c1 (stereo unspecified) |  | inconclusive: 20.6 µM [inhibitor, partial curve, poor fit]
25 | O=C(Nc1ccc(S(=O)(=O)Nc2ccccn2)cc1)c1cccc([N+](=O)[O-])c1 |  | inconclusive: 29.1 µM [inhibitor, single point]
26 | Cc1ccccc1CCNC(=O)C1CCC(=O)N(Cc2ccc(Cl)cc2)C1 (stereo unspecified) |  | inconclusive: 29.1 µM [inhibitor, single point]
27 | CN(Cc1ccccc1)S(=O)(=O)c1ccc(OCC(=O)NCc2cccnc2)cc1 | inactive: -22.8% | 
28 | COc1cc(NC(=O)Cn2c(=O)n(Cc3ccco3)c(=O)c3sc4ccccc4c32)cc(OC)c1 | inactive: -28.7% | 
29 | CCOc1ccc(Br)cc1S(=O)(=O)Nc1ccccc1N1CCOCC1 |  | inconclusive: 29.1 µM [inhibitor, single point]
30 | O=C(CCl)Nc1ccccc1Sc1ccc(Cl)cc1 |  | inconclusive: 29.1 µM [inhibitor, single point]
31 | O=C(CSc1c2c(nc3ccc(Cl)cc13)CCCC2)NCCCN1CCOCC1 |  | inconclusive: 16.4 µM [inhibitor, single point]
32 | CCCCn1c(SCC(=O)Nc2cc(C(F)(F)F)cc(C(F)(F)F)c2)nnc1C(CC)N(C)C (stereo unspecified) |  | active: 20.6 µM
33 | CC12c3ccccc3C(c3ccccc31)C1C(=O)N(Cc3cccnc3)C(=O)[C@H]12 (stereo partly specified) |  | inconclusive: 16.4 µM [inhibitor, single point]
34 | COc1ccc(CC(=O)NNC(=O)c2cc(Cl)ccc2OC)cc1 | inactive: -11.1% | 
35 | O=C(COC(=O)c1ccccc1O)NCC1COc2ccccc2O1 (stereo unspecified) | inconclusive: -32.2% [inhibitor] | 
36 | Cc1noc(C)c1CSCC(=O)Nc1cc(Cl)ccc1N1CCCCC1 |  | inconclusive: 20.6 µM [inhibitor, single point]
37 | Cc1nnc2ccc(N3CCN(c4cccc(C(F)(F)F)c4)CC3)nn12 |  | active: 16.4 µM
38 | CC(=O)c1cccc(NC(=O)c2ccc(S(=O)(=O)N3CCCC3)cc2)c1 |  | inconclusive: 16.4 µM [inhibitor, single point]
39 | COc1cccc(S(=O)(=O)N2CCN(C(=O)c3ccco3)CC2)c1 | inconclusive: -30.6% [inhibitor] | 
40 | Cc1ccc(C)c(N2CCN(C(=O)C3CCN(c4nc5ccc(C)cc5[nH]4)CC3)CC2)c1 |  | active: 2.31 µM
41 | COc1cccc(NC(=O)c2ccc(NC(=O)C3CC(=O)OC34CCCCC4)cc2)c1 (stereo unspecified) |  | inconclusive: 18.4 µM [inhibitor, single point]
42 | CSc1nc(N2CCOCC2)c2c3c(sc2n1)CCC3 |  | inconclusive: 18.4 µM [inhibitor, single point]
43 | O=C(/C=C/c1cccs1)N1CCN(c2ccccc2F)CC1 |  | inconclusive: 25.9 µM [inhibitor, single point]
44 | CCC(=O)Nc1nc2ccccc2n1Cc1ccccc1C |  | active: 14.6 µM

Row | Compound | activity change, negative = growth inhibition | Potency
45 | Cc1ccc(N2CCN(C(=O)c3c(C)oc4ncn(CC(C)C)c(=O)c34)CC2)c(C)c1 |  | active: 7.31 µM
46 | CCN1CCN(c2c(C=O)c(Cl)nc3ccc(OC)cc23)CC1 |  | inconclusive: 25.9 µM [inhibitor, single point]
47 | Cn1c(=O)c2c(nc(SCC(=O)N3c4ccccc4CCc4ccccc43)n2C)n(C)c1=O |  | inconclusive: 20.6 µM [inhibitor, single point]
48 | O=C(CCCCCBr)N1CCC(CC2CC(c3cccc(Br)c3)=NO2)(C(=O)NCC2CCCCC2)CC1 (stereo unspecified) |  | active: 20.6 µM
49 | CCOc1ccccc1/C=c1\sc2ncnn2c1=O |  | inconclusive: 29.1 µM [inhibitor, single point]
50 | Cc1ccc(/C=C/C(=O)NC2CCS(=O)(=O)C2)cc1 (stereo unspecified) |  | inconclusive: 0.92 µM [inhibitor, full curve]
51 | Cc1nc2cc(-c3ccsc3-n3c(C)ccc3C)[nH]n2c(=O)c1Cl |  | inconclusive: 32.6 µM [inhibitor, single point]
52 | COc1ccc(OCc2nnc(SCC(=O)Nc3oc(C)c4c(C)n[nH]c(=O)c34)n2C)cc1 | inactive: -2.17% | 
53 | CCc1cccc(NC(=O)CCC(=O)N2CCSc3ccccc32)c1 |  | inconclusive: 23.1 µM [inhibitor, single point]
54 | CCOc1ccc(C(=O)CCN2CCCCCC2)cc1 |  | active: 2.91 µM
55 | COC(=O)c1ccc(CSc2nc3ccccc3c(=O)n2-c2ccc(OC)c(OC)c2)o1 |  | inconclusive: 35.5 µM [inhibitor, single point]
56 | O=C(/C=C/c1cccc(O)c1)c1ccc(N2CCOCC2)cc1 |  | active: 14.6 µM
57 | Cc1cccc(CCNC(=O)c2ccc3c(c2)N(Cc2ccccc2F)C(=O)c2ccccc2S3)c1 |  | inconclusive: 11.6 µM [inhibitor, partial curve]
58 | CN(CC(=O)Nc1cccc(F)c1)C(=O)c1cccnc1Sc1ccc(Cl)cc1 |  | inconclusive: 10.3 µM [inhibitor, single point]
59 | COc1ccc2c(CC(=O)Nc3nnc(C4CC4)s3)coc2c1 |  | inconclusive: 4.11 µM [inhibitor, full curve, poor fit]
60 | Cc1cc(-c2ccc(C)c(S(=O)(=O)N3CCN(c4cccc(C(F)(F)F)c4)CC3)c2)on1 |  | inconclusive: 14.6 µM [inhibitor, partial curve]
61 | O=C(C[C@H]1C/C=C\C[C@H](NC(=O)OCC2c3ccccc3-c3ccccc32)C(=O)O[C@@H](c2ccccc2)CNC1=O)NCCO |  | active: 10.3 µM
62 | CC(=O)Nc1cc(-c2ccccc2CN(C)C)cn2c(-c3ccc(C(C)=O)cc3)cnc12 |  | active: 16.4 µM
63 | CCCCN(C)CCOc1ccccc1OCC |  | inconclusive: 16.4 µM [inhibitor, single point]
64 | Cc1ccn2cc(-c3ccc(NS(=O)(=O)c4ccccc4)cc3)nc2c1 |  | active: 29.1 µM
65 | CCOC(=O)c1ccc2c(c1)N(C)C(=O)c1ccccc1S2 | inconclusive: -34.1% [inhibitor] | 
66 | COc1ccc(C2CC(c3cccs3)=NN2c2ccc(F)cc2)cc1OC (stereo unspecified) | inactive: -7.92% | 

Reference: PubChem BioAssay AID686978 (National Center for Advancing Translational Sciences (NCATS), 2013)
